Z-score data for 70 molecules are collected here from PubChem BioAssay AID488969 (Vanderbilt High Throughput Screening Facility, 2010).

Over roughly 110,000 compounds, “z-score” has its median near -0.1; the highest 2% begin near 2. The list shows a part of the results.

The experiment addresses Metabotropic glutamate receptor 8 (Rattus norvegicus) (UniProt P70579). The experiment can be described thus: rat mGluR8 modulators via GIRK flux, primary screen, cell-based, thallium flux, HTS (AID 488969). The note with it: HEK293 rat mGluR8, GIRK (G protein-gated inwardly rectifying potassium channel) thallium flux, FluoZin2; at 10 µM; stronger effect = higher value; submaximal glutamate (EC20) added with thallium.
Sequence of UniProt P70579 (P70579 whole entry, looked up): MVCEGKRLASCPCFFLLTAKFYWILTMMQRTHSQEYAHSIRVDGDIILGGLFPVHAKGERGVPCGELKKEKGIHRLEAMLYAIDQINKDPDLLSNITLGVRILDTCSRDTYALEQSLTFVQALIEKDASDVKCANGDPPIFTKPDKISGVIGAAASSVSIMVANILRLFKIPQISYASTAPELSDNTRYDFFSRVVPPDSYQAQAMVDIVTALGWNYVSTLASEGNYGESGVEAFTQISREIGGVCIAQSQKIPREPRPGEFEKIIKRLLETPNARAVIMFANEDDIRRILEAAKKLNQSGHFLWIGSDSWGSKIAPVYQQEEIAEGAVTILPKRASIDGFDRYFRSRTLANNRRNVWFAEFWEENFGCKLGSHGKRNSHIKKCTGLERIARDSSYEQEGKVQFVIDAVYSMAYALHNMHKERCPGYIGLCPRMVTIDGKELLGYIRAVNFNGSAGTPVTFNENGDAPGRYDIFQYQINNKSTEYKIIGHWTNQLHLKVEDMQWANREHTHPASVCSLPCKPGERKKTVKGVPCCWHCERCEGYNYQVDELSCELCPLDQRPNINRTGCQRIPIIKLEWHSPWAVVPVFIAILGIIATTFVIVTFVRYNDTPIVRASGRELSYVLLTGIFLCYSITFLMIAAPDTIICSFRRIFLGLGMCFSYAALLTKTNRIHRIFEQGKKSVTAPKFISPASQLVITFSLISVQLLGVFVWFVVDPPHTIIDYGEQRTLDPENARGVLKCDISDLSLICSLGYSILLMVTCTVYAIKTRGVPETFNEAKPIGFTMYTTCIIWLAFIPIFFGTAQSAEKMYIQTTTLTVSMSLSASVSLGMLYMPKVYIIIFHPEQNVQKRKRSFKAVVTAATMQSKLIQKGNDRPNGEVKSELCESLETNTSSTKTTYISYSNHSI
With `O=c1c2ccccc2nc(CSc2nnnn2-c2ccccc2)n1-c1ccccc1Cl`, the z-score was -1.22.

For `CC(=O)NS(=O)(=O)c1ccc(N=c2ssc3c2-c2cc(C)ccc2NC3(C)C)cc1`, the z-score was -0.278. As for `O=C(/C=C/c1cccs1)c1ccc(NC(=O)c2cccc(Br)c2)cc1`, the z-score was 0.0521. Then `Nc1nnc(CSCc2ccccc2)s1`, with -0.29; and `Cc1ccc(C(=O)O/N=C2\CCSc3ccc(C)cc32)cc1`, with 0.0502; and `COc1ccccc1N1CCN(C(=O)c2sc3nc(-c4ccccc4)cn3c2C)CC1`, with -0.533. To `O=C(c1cnc2n(c1=O)CCS2)N1CCN(c2ccc([N+](=O)[O-])cc2)CC1` belongs 0.292; to `O=C(O)c1cc(NS(=O)(=O)c2cccc3ccccc23)ccc1O`, -0.171. Take `CCCOc1cc(N(CC)CC)ccc1/C=C(/C#N)c1nc2ccc(C)cc2[nH]1`: the z-score is -0.494. Then `COC(=O)C1=C(Nc2ccc(OC)cc2)C=C(C)C(C(=O)OC)C1c1ccc(C)cc1` (stereo not given), with 0.568; and `CC1CC(C)CN(CC(O)COCCOc2ccc(Br)cc2)C1` (stereo not given), with 0.701; and `CCN(CC)CCNC(=O)Cn1nc(Cc2ccccc2)c2ccccc2c1=O`, with 0.25.

`C=C(C)CSc1nc2nc(C)c(Br)cc2[nH]1` displayed a z-score of -0.373.

Molecule `CCCCNC1=C(Br)C(=O)CC(C)(C)C1` had a z-score of -0.0723. To `Cc1ccccc1C(=O)NNC(=O)c1ccoc1C` belongs 0.108. Then `O=C1NC2(C=Cc3c(ccc4ccccc34)O2)Oc2ccccc21` (stereo not given), with -0.237; and `COc1cc2ccccc2cc1C(=O)N1CCN(C)CC1`, with 0.651.

In turn, `Cc1cc(Cl)ccc1NC(=S)Nc1ccccn1` had a z-score of -0.568. To `CCC(=O)Nc1ccc(S(=O)(=O)N2CCOCC2)cc1` belongs -0.624; to `O=C(N/N=C/C=C/c1ccccc1)c1n[nH]c2c1CCC2`, -0.493. Take `Cc1cc(C(=O)N/N=C/c2cc([N+](=O)[O-])cc(C)c2O)n[nH]1`: the z-score is -0.163.

`C=CCOc1c2ccc(C(=O)NCCc3ccc(C)cc3)cc2nn1C` returned a z-score of 0.0834. Then `CCCCn1ccc(O)c(Cc2ccc(F)cc2)c1=O`, with 0.0131; and `CC(C)CCNc1nc2c(cc1C#N)COC(C)(C)C2`, with -0.377; and `CN(CC(=O)Nc1ccncc1)S(=O)(=O)c1ccccc1`, with -0.263. In turn, `CCOC(=O)c1[nH]c2ccc(Cl)cc2c1NC(=O)/C=C/c1ccc2c(c1)OCO2` came in with a z-score of 0.296. `CC(=O)C1=C(O)C(=O)N(c2ccc(C)cc2)C1c1ccccn1` (stereo not given) gave a z-score of -0.234. As for `O=c1c2ccccc2nc(SCc2cc(=O)n3ccsc3n2)n1CCCO`, the z-score was -0.128. To `Cc1noc2c1C(c1ccc(N(C)C)cc1)C1=C(CC(C)(C)CC1=O)N2` (stereo not given) belongs -0.142; to `Cc1[nH]c2c(C)cccc2c1CCNC(=O)c1ccc2c(c1[N+](=O)[O-])C(=O)c1ccccc1C2=O`, -0.202. Regarding `O=C(c1ccc(Cl)c(F)c1F)N1CCCC1`, the z-score turned out to be 0.212. As for `COc1cccc(-c2cc3nc(-c4ccccc4)cc(N4CCC5(CC4)OCCO5)n3n2)c1`, the z-score is -0.278. Then `Cc1ccccc1C(=O)NCc1nnc(SCC(=O)N2CCN(c3ccccc3)CC2)n1C`, with -0.0488; and `CCOc1cc(C(=S)N2CCOCC2)ccc1OC`, with 0.167; and `CN(CCNC(=O)C1CCN(S(=O)(=O)N2CCOCC2)CC1)CCc1ccccc1`, with -1.44. As for `CCN(CC)S(=O)(=O)c1cccc(C(=O)OCC(=O)Nc2ccccc2OC(F)F)c1`, the z-score is -0.984. To `CC(C)(C)n1nnnc1C(c1cccs1)N1CCCC2(CCCCC2)C1` (stereo not given) belongs 0.125; to `CCOc1cc(/C=N/NC(=O)c2ccncc2)cc(Cl)c1OS(C)(=O)=O`, -0.74. To `O=C1CCCCN1CCc1c[nH]c2ccccc12` belongs 0.0189; to `CON/C=C(\C=Nc1ccc(C(F)(F)F)cc1)c1ncc(C(F)(F)F)cc1Cl`, -0.109. Molecule `CCc1cccc2c(C(=O)COC(=O)c3ccc([N+](=O)[O-])s3)c[nH]c12` gave a z-score of 0.398. To `COc1ccccc1N/C(=N/S(=O)(=O)c1ccc(C)cc1)c1ccc(Cl)cc1` belongs -0.818. To `COCCn1c(=O)[nH]c2cc(C(=O)NCc3ccccc3)ccc2c1=O` belongs 0.41; to `COc1ccc(N2CCN(C(=O)CN3CCN(C(c4ccccc4)c4ccccc4)CC3)CC2)cc1`, -0.0649; to `Cc1cccc(NC(=O)CSc2nnc([C@@H]3CCCN3C(=O)OC(C)(C)C)o2)c1C`, 1.54. To `Cc1cc(C)nc(N/N=C/c2ccccc2OCc2ccc(Cl)cc2)n1` belongs 0.0163; to `CCOC(=O)C1=C(COc2ccc(C)cc2)NC(=O)NC1c1cc(C)ccc1C` (stereo not given), -0.0881; to `CCCCN(Cc1ccccc1)S(=O)(=O)c1ccc2[nH]c(=O)oc2c1`, 1.63.

As for `Cc1oc(-c2ccc(Cl)cc2)nc1CS(=O)CC(=O)NCc1cccs1` (stereo not given), the z-score is -0.0359. To `Cc1cccc(NC(=O)c2ccccc2OCC(=O)c2ccccc2)c1` belongs -0.226; to `COc1cc(NC(=O)c2ccco2)ccc1NC(=O)c1ccccc1Cl`, 0.0967.

`COc1ccc(N(Cc2cc(=O)[nH]c3ccccc23)C(=O)c2ccco2)cc1` displayed a z-score of 0.0242.

Turning to `COc1ccc(CCNC(=O)c2ccccc2N(C)S(=O)(=O)c2ccccc2)cc1`, the z-score came to 1.7. Then `Cc1cccc(-c2nnc3sc(-c4ccccc4)nn23)c1`, with 0.567. `COc1cc(C(=O)NCc2ccccc2)ccc1OC(F)F` had a z-score of -0.194. To `O=C1c2ccccc2C(=O)N1CCSc1ccccc1` belongs -0.0757. The molecule `CN1CCN(C(=O)c2cc3nc(-c4ccccc4)cc(C(F)(F)F)n3n2)CC1` displayed a z-score of -0.255. Then `CCOc1cc(CNc2ccc(N3CCCCC3)cc2)cc(Br)c1OCC(=O)NC(C)(C)C`, with 0.824; and `COc1cccc(/C=N/Nc2snc(SC)c2C#N)c1`, with 0.107. Then `COc1ccc(C(=O)Nc2nc(-c3ccc([N+](=O)[O-])cc3)c(-c3ccc(OC)cc3)s2)cc1`, with -0.225; and `O=C(NC1(C(F)(F)F)NC(=O)N(c2ccc(F)c(Cl)c2)C1=O)c1ccncc1` (stereo not given), with -0.112. The molecule `Clc1cccc(CSC2=NCCCN2)c1` showed a z-score of 1.31. In the case of `c1ccc(-c2nnc(-c3ccco3)n2-c2ccccc2)cc1`, the z-score was 0.694. Then `Cc1ccc(SCC(=O)Nc2ccccc2C(=O)O)cc1`, with -0.545; and `CCCNC(=O)c1noc2c1CCc1ccccc1-2`, with -1.67; and `O=C(Cc1c(F)cccc1Cl)NCC1CCCO1` (stereo not given), with 0.148. Then `O=C(O)c1cc2c(s1)CCCC2`, with 0.0889. Molecule `Cc1ccc(-n2nc(N)c3c(=O)oc(N(C)C)nc32)cc1` displayed a z-score of -0.254. To `CC(Sc1nnnn1-c1ccccc1)C(=O)Nc1ccc(Cl)cn1` (stereo not given) belongs -0.551; to `O=C(NC(Cc1ccccc1)C(=O)O)/C(=C\c1ccco1)NC(=O)c1ccc(Br)cc1` (stereo not given), -0.494.
